What was measured:
[1] = molecular target: T1, cynomolgus monkey CEACAM5 on CHO-k1-cynoCEACAM5 clone 8 cells (cynomolgus monkey); test: cell-based or functional assay
[2] = molecular target: T2, human CEACAM5 (carcinoembryonic antigen, CEA) on cells (human, UniProt P06731 35-685); test: cell-based or functional assay
T2 sequence: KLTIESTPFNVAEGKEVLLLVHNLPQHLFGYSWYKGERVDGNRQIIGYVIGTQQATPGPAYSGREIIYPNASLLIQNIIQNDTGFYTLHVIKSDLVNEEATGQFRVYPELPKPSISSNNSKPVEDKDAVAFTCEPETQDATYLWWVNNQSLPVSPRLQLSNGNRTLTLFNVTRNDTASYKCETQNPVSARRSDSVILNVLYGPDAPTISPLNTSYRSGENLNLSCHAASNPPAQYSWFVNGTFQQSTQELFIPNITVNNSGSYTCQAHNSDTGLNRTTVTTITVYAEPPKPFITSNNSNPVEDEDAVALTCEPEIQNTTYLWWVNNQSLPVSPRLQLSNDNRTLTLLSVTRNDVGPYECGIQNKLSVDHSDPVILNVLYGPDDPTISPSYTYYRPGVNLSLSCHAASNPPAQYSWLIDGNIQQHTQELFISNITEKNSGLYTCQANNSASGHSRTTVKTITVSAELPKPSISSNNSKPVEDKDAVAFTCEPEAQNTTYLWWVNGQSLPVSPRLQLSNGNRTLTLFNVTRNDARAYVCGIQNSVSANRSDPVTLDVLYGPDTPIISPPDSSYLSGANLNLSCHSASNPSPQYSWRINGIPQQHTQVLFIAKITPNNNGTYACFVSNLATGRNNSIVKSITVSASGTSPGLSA

[3] = molecular target: T2, human CEACAM5 (carcinoembryonic …); test: flow cytometry, CHO-k1-huCEACAM5 clone 11
[4] = molecular target: T1, cynomolgus monkey CEACAM5 on …; test: flow cytometry, CHO-k1-cynoCEACAM5 clone 8; design: unit not given beside the values
[5] = molecular target: T2, human CEACAM5 (carcinoembryonic …); test: flow cytometry, CHO-k1-huCEACAM5 clone 12
[6] = molecular target: T1, cynomolgus monkey CEACAM5 on …; test: cell-based or functional assay; design: AUC of activation curve, Jurkat-hu4-1BB-NFκB-luc2, no CEA+ cells / AUC of activation curve, Jurkat-hu4-1BB-NFκB-luc2 with CHO-k1-cyno CEACAM5 clone 8: unit not given beside the values
[7] = molecular target: human 4-1BB on Jurkat-hu4-1BB-NFκB-luc2 reporter cells (human, UniProt Q07011 24-255); test: cell-based or functional assay; design: AUC of activation curve, Jurkat-hu4-1BB-NFκB-luc2, no CEA+ cells / AUC of activation curve, Jurkat-hu4-1BB-NFκB-luc2 with CHO-k1-cyno CEACAM5 clone 8: unit not given beside the values
[8] = molecular target: T2, human CEACAM5 (carcinoembryonic …); test: cell-based or functional assay; design: AUC of activation curve, Jurkat-hu4-1BB-NFκB-luc2, no CEA+ cells / AUC of activation curve, Jurkat-hu4-1BB-NFκB-luc2 with CHO-k1-cyno CEACAM5 clone 8: unit not given beside the values
[9] = molecular target: T3, hu N(A2-B2)A-avi-His (human, biotin on the avi tag where used biotinylated); test: SPR (Biacore T200), huN(A2-B2)A immobilised on a CM5 chip, construct injected as analyte 1
T3 construct: chimeric soluble antigen; also called hu N(A2-B2)A-avi-His B; human CEA (A2 domain)
T3 chain: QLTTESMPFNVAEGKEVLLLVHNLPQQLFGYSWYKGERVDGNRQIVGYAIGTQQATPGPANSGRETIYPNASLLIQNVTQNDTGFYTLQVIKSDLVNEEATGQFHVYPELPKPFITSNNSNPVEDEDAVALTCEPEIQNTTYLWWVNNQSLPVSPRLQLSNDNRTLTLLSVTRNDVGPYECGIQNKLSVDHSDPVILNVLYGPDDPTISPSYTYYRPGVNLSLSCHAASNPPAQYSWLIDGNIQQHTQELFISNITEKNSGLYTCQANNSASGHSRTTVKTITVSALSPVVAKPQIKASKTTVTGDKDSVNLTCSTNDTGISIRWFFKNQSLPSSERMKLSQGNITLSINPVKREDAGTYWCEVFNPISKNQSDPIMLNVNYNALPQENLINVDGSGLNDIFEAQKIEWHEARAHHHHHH
Procedure: All SPR experiments were performed on a Biacore T200 at 25° C. with HBS-EP as running buffer (0.01 M HEPES pH 7.4, 0.15 M NaCl, 3 mM EDTA, 0.005% Surfactant P20, Biacore, Freiburg/Germany).
Bulk refractive index differences were corrected for by subtracting the response obtained in a reference flow cell, where no protein was immobilized.

[10] = molecular target: T2, human CEACAM5 (carcinoembryonic …); test: flow cytometry, CHO-k1-huCEACAM5 clone 12; design: unit not given beside the values
[11] = molecular target: T1, cynomolgus monkey CEACAM5 on …; test: flow cytometry, CHO-k1-cynoCEACAM5 clone 8
[12] = molecular target: T2, human CEACAM5 (carcinoembryonic …); test: flow cytometry, CHO-k1-huCEACAM5 clone 11; design: unit not given beside the values

Chain of UniProt Q07011 (Q07011 24-255 limits assumed): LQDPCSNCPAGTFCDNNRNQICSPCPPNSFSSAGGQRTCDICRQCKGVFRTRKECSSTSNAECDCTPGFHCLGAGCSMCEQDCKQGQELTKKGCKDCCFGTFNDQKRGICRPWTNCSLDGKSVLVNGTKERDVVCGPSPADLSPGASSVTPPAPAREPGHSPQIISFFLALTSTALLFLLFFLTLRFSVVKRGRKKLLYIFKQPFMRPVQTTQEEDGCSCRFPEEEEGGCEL

EC50, NFκB-luciferase in Jurkat-hu4-1BB-NFκB-luc2 with CHO-k1-cyno CEACAM5 clone 8 [1]: 0.12 nM | EC50, NFκB-luciferase in Jurkat-hu4-1BB-NFκB-luc2 with CHO-k1-human CEACAM5 clone 11 [2]: 0.1 nM | EC50, NFκB-luciferase in Jurkat-hu4-1BB-NFκB-luc2 with CHO-k1-human CEACAM5 clone 12 [2]: 0.08 nM | EC50 [3]: 40.9 nM | AUC [4]: 2770 | EC50 [5]: 43.4 nM | AUC of activation curve, Jurkat-hu4-1BB-NFκB-luc2 with CHO-k1-cyno CEACAM5 clone 8 [6]: 88800 | AUC of activation curve, Jurkat-hu4-1BB-NFκB-luc2, no CEA+ cells [7]: 2510 | AUC of activation curve, Jurkat-hu4-1BB-NFκB-luc2 with CHO-k1-human CEACAM5 clone 11 [8]: 152000 | AUC of activation curve, Jurkat-hu4-1BB-NFκB-luc2 with CHO-k1-human CEACAM5 clone 12 [8]: 131000 | binding result [9]: binds | AUC [10]: 8990 | EC50 [11]: 79.5 nM | AUC [12]: 3180
B1: CEA(P005.102)-4-1BBL (Fc fusion)
chain 1: REGPELSPDDPAGLLDLRQGMFAQLVAQNVLLIDGPLSWYSDPGLAGVSLTGGLSYKEDTKELVVAKAGVYYVFFQLELRRVVAGEGSGSVSLALHLQPLRSAAGAAALALTVDLPPASSEARNSAFGFQGRLLHLSAGQRLGVHLHTEARARHAWQLTQGATVLGLFRVTPEIPAGLGGGGSGGGGSREGPELSPDDPAGLLDLRQGMFAQLVAQNVLLIDGPLSWYSDPGLAGVSLTGGLSYKEDTKELVVAKAGVYYVFFQLELRRVVAGEGSGSVSLALHLQPLRSAAGAAALALTVDLPPASSEARNSAFGFQGRLLHLSAGQRLGVHLHTEARARHAWQLTQGATVLGLFRVTPEIPAGLGGGGSGGGGSRTVAAPSVFIFPPSDRKLKSGTASVVCLLNNFYPREAKVQWKVDNALQSGNSQESVTEQDSKDSTYSLSSTLTLSKADYEKHKVYACEVTHQGLSSPVTKSFNRGE[human IgG1 Fc with changes not spelt out]
chain 2: REGPELSPDDPAGLLDLRQGMFAQLVAQNVLLIDGPLSWYSDPGLAGVSLTGGLSYKEDTKELVVAKAGVYYVFFQLELRRVVAGEGSGSVSLALHLQPLRSAAGAAALALTVDLPPASSEARNSAFGFQGRLLHLSAGQRLGVHLHTEARARHAWQLTQGATVLGLFRVTPEIPAGLGGGGSGGGGSASTKGPSVFPLAPSSKSTSGGTAALGCLVEDYFPEPVTVSWNSGALTSGVHTFPAVLQSSGLYSLSSVVTVPSSSLGTQTYICNVNHKPSNTKVDEKVEPKSC
heavy: EVQLLESGGGLVQPGGSLRLSCAASGFTFTDYYMNWVRQAPGKGLEWLGFIGNKANAYTTEYSASVKGRFTISRDKSKNTLYLQMNSLRAEDTATYYCTRDRGIRFQFDYWGQGTTVTVSSASTKGPSVFPLAPSSKSTSGGTAALGCLVKDYFPEPVTVSWNSGALTSGVHTFPAVLQSSGLYSLSSVVTVPSSSLGTQTYICNVNHKPSNTKVDKKVEPKSCDKTHTCPPCPAPEAAGGPSVFLFPPKPKDTLMISRTPEVTCVVVDVSHEDPEVKFNWYVDGVEVHNAKTKPREEQYNSTYRVVSVLTVLHQDWLNGKEYKCKVSNKALGAPIEKTISKAKGQPREPQVCTLPPSRDELTKNQVSLSCAVKGFYPSDIAVEWESNGQPENNYKTTPPVLDSDGSFFLVSKLTVDKSRWQQGNVFSCSVMHEALHNHYTQKSLSLSP
light: EIVLTQSPATLSLSPGERATLSCRASSSVTYIHWYQQKPGQAPRSWIYATSNLASGIPARFSGSGSGTDFTLTISSLEPEDFAVYYCQHWSSKSPTFGQGTKLEIKRTVAAPSVFIFPPSDEQLKSGTASVVCLLNNFYPREAKVQWKVDNALQSGNSQESVTEQDSKDSTYSLSSTLTLSKADYEKHKVYACEVTHQGLSSPVTKSFNRGEC
notes: split trimeric 4-1BBL Fc (kih) P329G LALA with one anti-CEA Fab; also called CEA (aff. mat. A5H1EL1D P005.102)-4-1BBL

Reference: patent US20220267464A1 (Hoffmann-La Roche, published 2022)
